Results published in PMC4336329 (PLoS ONE, 2015).
Screen size: about 310,000 compounds; about 14,000 (4.5%) showed an effect of 50% or more. Effects have a minus sign here. The list shows a part of the results.

target: human ether-à-go-go-related gene (hERG) potassium channel (human, UniProt Q12809); test: primary screen, population patch clamp on CHO cells stably expressing hERG
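Note: peak tail current of the secondary pulse compared with the same well before compound.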

Chain of human ether-à-go-go-related gene (hERG) potassium channel (Q12809 whole entry, looked up): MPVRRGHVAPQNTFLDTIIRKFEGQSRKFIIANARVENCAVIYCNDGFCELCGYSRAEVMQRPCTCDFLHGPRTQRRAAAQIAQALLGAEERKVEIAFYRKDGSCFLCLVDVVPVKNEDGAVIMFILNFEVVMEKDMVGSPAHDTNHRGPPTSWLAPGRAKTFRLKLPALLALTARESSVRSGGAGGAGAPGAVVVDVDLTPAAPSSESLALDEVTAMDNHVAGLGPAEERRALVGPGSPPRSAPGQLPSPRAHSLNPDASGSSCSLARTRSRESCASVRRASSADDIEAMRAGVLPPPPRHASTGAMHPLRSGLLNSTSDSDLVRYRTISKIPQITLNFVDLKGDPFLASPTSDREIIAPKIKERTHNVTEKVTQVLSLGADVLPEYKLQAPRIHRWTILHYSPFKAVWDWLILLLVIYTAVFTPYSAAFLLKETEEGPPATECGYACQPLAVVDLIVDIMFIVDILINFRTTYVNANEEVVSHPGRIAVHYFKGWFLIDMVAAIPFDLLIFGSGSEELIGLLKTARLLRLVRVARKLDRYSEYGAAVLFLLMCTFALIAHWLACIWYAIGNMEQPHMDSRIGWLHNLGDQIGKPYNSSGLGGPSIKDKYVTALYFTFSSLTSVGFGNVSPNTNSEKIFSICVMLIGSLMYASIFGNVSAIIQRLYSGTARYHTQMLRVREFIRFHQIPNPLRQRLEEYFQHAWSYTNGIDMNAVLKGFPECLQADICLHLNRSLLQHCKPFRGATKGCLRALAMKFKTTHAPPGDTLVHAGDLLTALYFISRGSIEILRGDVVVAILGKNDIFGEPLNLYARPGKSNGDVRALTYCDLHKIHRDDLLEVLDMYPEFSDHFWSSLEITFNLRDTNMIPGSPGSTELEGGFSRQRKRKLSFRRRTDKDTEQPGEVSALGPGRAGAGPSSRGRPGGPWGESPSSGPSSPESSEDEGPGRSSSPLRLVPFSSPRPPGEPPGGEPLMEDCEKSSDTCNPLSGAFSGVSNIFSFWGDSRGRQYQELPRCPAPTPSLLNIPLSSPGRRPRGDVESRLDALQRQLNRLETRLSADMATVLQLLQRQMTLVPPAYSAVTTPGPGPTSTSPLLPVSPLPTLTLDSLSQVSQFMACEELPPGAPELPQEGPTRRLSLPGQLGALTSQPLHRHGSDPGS

For `CCN(CC(=O)Nc1ccccc1C(=O)OC)S(=O)(=O)c1ccccc1`, which “hERG current change (%, negative = inhibition) at 10uM” value is on record?
Its value is -9.17%.

How did the “hERG current change (%, negative = inhibition) at 10uM” value turn out when `COCC(=O)N(C)C1(c2nnnn2CCOC(=O)Nc2cccc3ccccc23)CCCC1` was run?
The value was 7.37%.

`Cc1ccc(S(=O)(=O)N/N=C(\c2ccccc2)C2CC2)cc1` was tested. Which “hERG current change (%, negative = inhibition) at 10uM” value did it give?
The value was 9.49%.

For `CC1CCC2C(=O)N(c3ccc(C(=O)Oc4cccc5cccnc45)cc3)C(=O)C2C1` (centres unmarked), which “hERG current change (%, negative = inhibition) at 10uM” value is on record?
Its value is 0.202%.

For `O=[N+]([O-])c1cccc(CN2[C@@H](Cc3ccccc3)COCCS2(=O)=O)c1`, which “hERG current change (%, negative = inhibition) at 10uM” value is on record?
Its value is -11.3%.

`Cc1cc(C)c(S(=O)(=O)c2cccc(Cl)c2)c(Cl)n1` was tested. Which “hERG current change (%, negative = inhibition) at 10uM” value did it give?
Its value is -2.46%.

For `C=CCN(C(=O)c1cccc(S(=O)(=O)N2CCN(C)CC2)c1)c1nc(-c2ccccc2)cs1`, which “hERG current change (%, negative = inhibition) at 10uM” value is on record?
Its value is 12.6%.

How did the “hERG current change (%, negative = inhibition) at 10uM” value turn out when `Cc1ccccc1NC(=O)Cc1nnc(SCC(=O)Nc2ccccc2)n1C` was run?
Its value is 2.67%.

Which “hERG current change (%, negative = inhibition) at 10uM” value does the source give for `CCN(CC)c1ccc(/C=N/N2CCN(Cc3ccc(Cl)cc3)CC2)c(O)c1` here?
The value was 9%.

For `CC1CCCC(NC(=O)COC(=O)COc2ccc(Cl)cc2)C1C` (centres unmarked), which “hERG current change (%, negative = inhibition) at 10uM” value is on record?
The value was 7.79%.

`CCOC(=O)N1CCN(c2nc(-c3ccco3)cc(C(F)(F)F)n2)CC1` was tested. Which “hERG current change (%, negative = inhibition) at 10uM” value did it give?
Its value is -3.17%.

How did the “hERG current change (%, negative = inhibition) at 10uM” value turn out when `O=c1c2ccccc2n(CC(O)CN2CCOCC2)c2ccccc12` (centres unmarked) was run?
Its value is -9.98%.

With `O=C(NCCOc1ccc(Cl)cc1)c1cccc(S(=O)(=O)N2CCCC2)c1` as the compound, how does the “hERG current change (%, negative = inhibition) at 10uM” value read?
The value was -51.8%.

Which “hERG current change (%, negative = inhibition) at 10uM” value does the source give for `CCOc1ccc(-c2nnc(SCC(=O)NC(C)(C)C)nc2-c2ccc(OCC)c(OC)c2)cc1OC` here?
The value was -16.4%.

For `COc1ccc(Nc2nc(C)cc(C)n2)cc1Cl.Cl`, which “hERG current change (%, negative = inhibition) at 10uM” value is on record?
The value was 0.588%.

Which “hERG current change (%, negative = inhibition) at 10uM” value does the source give for `CC(NCC(=O)Nc1ccccc1C(=O)NC1CC1)c1ccc(S(C)(=O)=O)cc1` (centres unmarked) here?
The value was -5.26%.

For `CCOC(=O)c1sc(NC(=O)CSc2n[nH]c(-c3ccncc3)n2)c(C#N)c1C`, which “hERG current change (%, negative = inhibition) at 10uM” value is on record?
Its value is 19%.

For `COc1ccc(N2C(=O)CSC2c2ccccc2F)c(OC)c1` (centres unmarked), which “hERG current change (%, negative = inhibition) at 10uM” value is on record?
The value was -4.16%.

`CCc1ccc(C(CNc2nc(C(F)(F)F)nc3ccccc23)N(C)C)cc1` (centres unmarked) was tested. Which “hERG current change (%, negative = inhibition) at 10uM” value did it give?
The value was -28%.

Which “hERG current change (%, negative = inhibition) at 10uM” value does the source give for `O=C1CC(N2CCN(c3ccc(Cl)cc3)CC2)C(=O)N1c1ccc(F)cc1` (centres unmarked) here?
Its value is 2.72%.

How did the “hERG current change (%, negative = inhibition) at 10uM” value turn out when `CCc1ccc(C2(O)CC(C(F)(F)F)=NN2C(=O)Cc2ccc([N+](=O)[O-])cc2)cc1` (centres unmarked) was run?
Its value is 13.3%.

With `CCOC(=O)c1ccc(Nc2nc(C(=O)OCC)nc3ccccc23)cc1` as the compound, how does the “hERG current change (%, negative = inhibition) at 10uM” value read?
Its value is -6.6%.

With `CC(=O)Nc1ccc(S(=O)(=O)N2CCC(NC(=O)C(Cc3cccc(F)c3)NC(C)=O)CC2)cc1` (centres unmarked) as the compound, how does the “hERG current change (%, negative = inhibition) at 10uM” value read?
Its value is 18.6%.

`O=C(Nc1ccccc1)Nc1ccc(Cl)c(S(=O)(=O)N2CCOCC2)c1` was tested. Which “hERG current change (%, negative = inhibition) at 10uM” value did it give?
Its value is 0.512%.

With `CCOC(=O)Cc1csc(/N=C/c2c(O)n(-c3ccc(C)cc3C)c(=O)c3ccccc23)n1` as the compound, how does the “hERG current change (%, negative = inhibition) at 10uM” value read?
Its value is -6.7%.

Which “hERG current change (%, negative = inhibition) at 10uM” value does the source give for `CC[C@@]12C(=O)N(c3cccc(F)c3)C(=O)N1[C@H](c1ccc(F)cc1)[C@@H]1C(=O)N(C3CCCCC3)C(=O)[C@@H]12` here?
The value was 10.9%.

`CCOC1=C/C(=C/c2c(N)n3nc(S(=O)(=O)CC)sc3nc2=O)C=CC1=O` was tested. Which “hERG current change (%, negative = inhibition) at 10uM” value did it give?
The value was -31.3%.

`O=C(CCN1C(=O)/C(=C/c2ccc3c(c2)OCO3)SC1=S)Nc1ccc(C(=O)O)cc1` was tested. Which “hERG current change (%, negative = inhibition) at 10uM” value did it give?
The value was 17.5%.

With `O=C1C2C3C=CC(C3)C2C(=O)N1c1ccc(N2CCN(c3ccccn3)CC2)c([N+](=O)[O-])c1` (centres unmarked) as the compound, how does the “hERG current change (%, negative = inhibition) at 10uM” value read?
The value was -18.6%.

How did the “hERG current change (%, negative = inhibition) at 10uM” value turn out when `O=C(c1cc2nc(-c3ccco3)cc(C(F)(F)F)n2n1)N1CCN(c2ccccc2)CC1` was run?
Its value is -12.1%.

For `Cn1c(=O)c2c(ncn2CC(=O)Nc2cccc(S(=O)(=O)Nc3ccccc3F)c2)n(C)c1=O`, which “hERG current change (%, negative = inhibition) at 10uM” value is on record?
Its value is 9.49%.

Which “hERG current change (%, negative = inhibition) at 10uM” value does the source give for `CCOC(=O)C1C(C#N)=C(N)OC(C)=C1c1ccncc1` (centres unmarked) here?
The value was -8.18%.

How did the “hERG current change (%, negative = inhibition) at 10uM” value turn out when `COc1ccc(CC(=O)Nc2ccncc2Cl)cc1` was run?
Its value is 15.8%.

For `NCCCN1CCN(c2ccccc2)CC1`, which “hERG current change (%, negative = inhibition) at 10uM” value is on record?
The value was -8.45%.

Which “hERG current change (%, negative = inhibition) at 10uM” value does the source give for `Cc1cccc(C)c1OCCCn1ccnc1` here?
Its value is 23.6%.

With `O=C(Cc1ccccc1)NNC(=O)C1CC=CCC1` (centres unmarked) as the compound, how does the “hERG current change (%, negative = inhibition) at 10uM” value read?
Its value is 19.5%.

For `Cn1c2c(c(=O)n(C)c1=O)NC1(N2)C(=O)Nc2ccccc21` (centres unmarked), which “hERG current change (%, negative = inhibition) at 10uM” value is on record?
Its value is 13.7%.

How did the “hERG current change (%, negative = inhibition) at 10uM” value turn out when `CNC(=O)N(O)C1N(/N=C/c2ccccc2OC)C(=S)SC1(C)C` (centres unmarked) was run?
The value was 0.348%.

How did the “hERG current change (%, negative = inhibition) at 10uM” value turn out when `Cc1cc(C)c2c(c1)/C(=N/NS(=O)(=O)c1ccc(Br)cc1)CCC2` was run?
The value was -2.55%.

`CCOC(=O)c1c(C)[nH]c(C)c1S(=O)(=O)N1CCN(C(=O)c2ccco2)CC1` was tested. Which “hERG current change (%, negative = inhibition) at 10uM” value did it give?
The value was 16.5%.

`O=C(CN1C(=O)c2ccccc2S1(=O)=O)Nc1ccccn1` was tested. Which “hERG current change (%, negative = inhibition) at 10uM” value did it give?
The value was -13%.

Which “hERG current change (%, negative = inhibition) at 10uM” value does the source give for `CC1(C)Cc2c(cnn2-c2ccccc2)C(=O)/C1=N\NC(=O)c1ccccc1O` here?
Its value is 1.23%.

How did the “hERG current change (%, negative = inhibition) at 10uM” value turn out when `Cc1ccc(-c2noc(CN(C(=O)c3cccs3)C(C)C)n2)cc1` was run?
The value was 1.39%.

Which “hERG current change (%, negative = inhibition) at 10uM” value does the source give for `Cc1ccccc1Nc1nnc(SCC(=O)Nc2ncc(C(F)(F)F)cc2Cl)s1` here?
The value was -33.8%.

Which “hERG current change (%, negative = inhibition) at 10uM” value does the source give for `Clc1c(-c2ccccc2)nnn1-c1ccccc1` here?
The value was -2.21%.

How did the “hERG current change (%, negative = inhibition) at 10uM” value turn out when `Cc1ccc(-c2cc3onc(-c4ccccc4)c3c(=O)n2C)cc1` was run?
The value was 4.05%.

`Cc1ccc(-c2nn3c(C)nnc3s2)cc1NC(=O)c1cccnc1` was tested. Which “hERG current change (%, negative = inhibition) at 10uM” value did it give?
Its value is -24.4%.

Which “hERG current change (%, negative = inhibition) at 10uM” value does the source give for `CCNc1nc(NCc2ccccc2)nc(SCC(=O)Nc2ccccc2)n1` here?
The value was 0.272%.

How did the “hERG current change (%, negative = inhibition) at 10uM” value turn out when `CN1CCCN=C1/C=C/c1cccs1.O=C(O)C(O)C(O)C(=O)O` was run?
The value was 9.07%.

With `CC(C)C(CO)NC(=O)CC(=O)NC(CO)C(C)C` (centres unmarked) as the compound, how does the “hERG current change (%, negative = inhibition) at 10uM” value read?
Its value is 3.54%.

Which “hERG current change (%, negative = inhibition) at 10uM” value does the source give for `CCCCOc1ccc(C(=O)OCC(=O)N2CCOCC2)cc1` here?
The value was -2.42%.

How did the “hERG current change (%, negative = inhibition) at 10uM” value turn out when `Cn1c(CCNC(=O)c2cccs2)nnc1SCC(=O)N1CCN(c2ccccc2)CC1` was run?
Its value is 15.8%.

With `Cc1ccc(S(=O)(=O)NCC23C=CC(O2)C2C(=O)N(c4ccccc4)C(=O)C23)cc1` (centres unmarked) as the compound, how does the “hERG current change (%, negative = inhibition) at 10uM” value read?
The value was 2.53%.
